Molecules are shown by their SMILES. The campaign covered roughly 150,000 compounds. About 540 (0.36%) showed an effect of 50% or more. This is one part of the list.

In this test the test system is Plasmodium falciparum. Briefly: Primary screen in NF54 nanoGlo assay, in single point, at 2uM, 72h; a lower Z score goes with more inhibition. The test is classed as functional, Erythrocyte. Conditions: timepoint 72 hour.
As for `Cn1ccnc1[C@H]1CCN(Cc2nnc3n2CCCCC3)C1`, the % Inhibition (commonly the change of the read-out against control, counted positive when it falls) is given as -8% and the Z score was 1.04.

As for `O=C(NC[C@H]1CCCN(c2ccncc2F)C1)c1cscn1`, the “% Inhibition” value stood at 6% and the Z score was -1.22.

Take `COc1ccc(CCNC(=O)c2c(O)c3cccc4c3n(c2=O)[C@@H](C)C4)cc1OC`: the “% Inhibition” value is given as 3% and the Z score is on record as -0.44.

Turning to `Cc1noc(C)c1CNCc1cnc2ccc(Br)cn12`, the “% Inhibition” value is recorded as -9% and the Z score turned out to be 1.81.

With `COC1CCCC1OC(=O)c1ccncc1F` (stereo not drawn), the “% Inhibition” value came out at 6% and the Z score is listed as -0.7.

Take `Cc1ccc(-c2nnc(-c3nc(NCCc4c(C)noc4C)c4ccccc4n3)o2)cc1`: the “% Inhibition” value is 3% and the Z score is listed as -0.52.

For the compound `Cc1cc(C)c(CNC(=O)c2ccc(-c3ccco3)[nH]c2=O)c(=O)[nH]1`, the “% Inhibition” value was -18% and the Z score was 2.5.

Regarding `N[C@@]1(C(=O)Nc2cncc(C(F)F)c2)CCc2cc(Br)ccc2C1`, the “% Inhibition” value is recorded as -15% and the Z score is given as 1.64.

`CN=C(NCc1ncc(C)s1)N1CCN(Cc2cccs2)CC1`: the “% Inhibition” value is recorded as -3% and the Z score is on record as 0.32.

For `COCC1(S(=O)(=O)Nc2ccc(-n3ccc(=O)[nH]3)c(F)c2)CC1`, the “% Inhibition” value was -8% and the Z score is recorded as 1.46.

Consider `O=C(CN1CCC(n2cc(NS(=O)(=O)C(F)F)cn2)CC1)NCc1ccccc1`, for which the “% Inhibition” value is -8% and the Z score stood at 0.9.

As for `FC1(F)CC(CN2CCOCC23CC3)C1`, the “% Inhibition” value came to 3% and the Z score is reported as -0.34.

Consider `Cc1nonc1CC(=O)NCc1cccnc1Oc1ccc(F)c(F)c1`, for which the “% Inhibition” value is -21% and the Z score is 2.67.

Take `Cn1cc(-c2nc3ccccc3c(=O)[nH]2)cn1`: the “% Inhibition” value is on record as 8% and the Z score was -0.91.

As for `Cc1nc(N2CCCCCCC2)ncc1[C@H](C)NCC1CC1`, the “% Inhibition” value is on record as -5% and the Z score is 0.77.

With `O=C(NCCOc1cccc(Cl)c1Cl)NC1CCC(O)CC1` (stereo not drawn), the “% Inhibition” value is given as -16% and the Z score was found to be 2.43.

Turning to `CCc1nn(CC(=O)N[C@@H](COc2ccc(OC)cc2)C(C)C)c(=O)c2ccccc12`, the “% Inhibition” value is on record as -1% and the Z score stood at 0.26.

With `Cc1cc(NC(=O)Cn2ccc(-c3scnc3C)n2)n(C)n1`, the “% Inhibition” value came out at 1% and the Z score is on record as -0.12.

On to `Cc1ccc(CN2CCc3nc(N4CCN(C)CC4)nc(Oc4ccc(F)cc4)c3C2)cc1`, for which the “% Inhibition” value is -7% and the Z score was 0.82.

On to `CN(C)C(=O)N1CC[C@](c2nnnn2C2CCCC2)(N(C)C)C1`, for which the “% Inhibition” value was -10% and the Z score is reported as 1.29.

With `C[C@H](NC(=O)CC1CCCCC1)C(=O)N(C)Cc1cscn1`, the “% Inhibition” value is reported as -10% and the Z score is on record as 1.83.

Turning to `CC(C)(C)CC(=O)N1CCN2[C@@H](C1)CN(S(=O)(=O)c1ccccc1)CC2(C)C`, the “% Inhibition” value is 5% and the Z score was -0.61.

As to `O=S(=O)(C1CCCCC1)N1CC[C@@H](O)C1`, the “% Inhibition” value came to 10% and the Z score is recorded as -1.28.

Consider `Cc1ccc(NCCc2ccc(Cl)cc2)nn1`, for which the “% Inhibition” value is listed as -7% and the Z score was determined as 1.04.

These data come from ChEMBL document CHEMBL4888484, “Replenishing the malaria drug discovery pipeline: Screening and hit evaluation of the MMV Hit Generation Library 1 (HGL1) against asexual blood stage Plasmodium falciparum ,using a nano luciferase reporter read-out” (2022).
